# The other results are listed elsewhere or left out.
# B1: AAL (Aleuria aurantia), P18891 (protein)
# chain: PTEFLYTSKIAAISWAATGGRQQRVYFQDLNGKIREAQRGGDNPWTGGSSQNVIGEAKLFSPLAAVTWKSAQGIQIRVYCVNKDNILSEFVYDGSKWITGQLGSVGVKVGSNSKLAALQWGGSESAPPNIRVYYQKSNGSGSSIHEYVWSGKWTAGASFGSTVPGTGIGATAIGPGRLRIYYQATDNKIREHCWDSNSWYVGGFSASASAGVSIAAISWGSTPNIRVYWQKGREELYEAAYGGSWNTPGQIKDASRPTPSLPDTFIAANSSGNIDISVFFQASGVSLQQWQWISGKGWSIGAVVPTGTPAGW
# Legend:
# Experiment in all cases: glycan array binding signal (z-score within array); higher = stronger binding
# Settings in all cases: glycan notation: IUPAC condensed, linker removed
# [1] = target: Neu5Ac(a2-3)Gal(b1-4)GlcNAc(b1-2)Man(a1-3)[GlcNAc(b1-2)Man(b1-4)GlcNAc(b1-2)Man(a1-6)]Man(b1-4)GlcNAc(b1-4)GlcNAc
# Outline: (§1)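 Negative Z-scores can be read as non-binding. The Z-score is calculated within each array and then averaged across arrays of one protein sequence at different concentrations or buffers and across linkers. Arrays, 3228 in all, were curated from the Consortium for Functional Glycomics database and kept only where the protein sequence was available.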
# [2] = target: Neu5Ac(a2-3)Gal(b1-4)GlcNAc(b1-2)Man(a1-3)[Neu5Ac(a2-6)Gal(b1-4)GlcNAc(b1-2)Man(a1-6)]Man(b1-4)GlcNAc(b1-4)GlcNAc
# Outline: as §1
# [3] = target: Neu5Ac(a2-3)Gal(b1-4)GlcNAc(b1-3)Gal
# Outline: as §1
# [4] = target: Neu5Ac(a2-3)Gal(b1-4)GlcNAc(b1-3)Gal(b1-3)GlcNAc
# Outline: as §1
# [5] = target: Neu5Ac(a2-3)Gal(b1-4)GlcNAc(b1-3)Gal(b1-4)GlcNAc
# Outline: as §1
# [6] = target: Neu5Ac(a2-3)Gal(b1-4)GlcNAc(b1-3)Gal(b1-4)GlcNAc(b1-3)Gal(b1-4)GlcNAc
# Outline: as §1
# [7] = target: Neu5Ac(a2-3)Gal(b1-4)GlcNAc(b1-3)Gal(b1-4)[Fuc(a1-3)]GlcNAc
# Outline: as §1
# [8] = target: Neu5Ac(a2-3)Gal(b1-4)GlcNAc(b1-3)GalNAc
# Outline: as §1
# [9] = target: Neu5Ac(a2-3)Gal(b1-4)GlcNAc(b1-6)[Gal(b1-3)]GalNAc
# Outline: as §1
# [10] = target: Neu5Ac(a2-3)Gal(b1-4)GlcNAc(b1-6)[Neu5Ac(a2-3)Gal(b1-3)]GalNAc
# Outline: as §1
# [11] = target: Neu5Ac(a2-3)Gal(b1-4)GlcNAc6S
# Outline: as §1
# [12] = target: Neu5Ac(a2-3)Gal(b1-4)[Fuc(a1-3)]GlcNAc
# Outline: as §1
# [13] = target: Neu5Ac(a2-3)Gal(b1-4)[Fuc(a1-3)]GlcNAc(b1-3)Gal
# Outline: as §1
# [14] = target: Neu5Ac(a2-3)Gal(b1-4)[Fuc(a1-3)]GlcNAc(b1-3)Gal(b1-4)GlcNAc
# Outline: as §1
# [15] = target: Neu5Ac(a2-3)Gal(b1-4)[Fuc(a1-3)]GlcNAc(b1-3)Gal(b1-4)[Fuc(a1-3)]GlcNAc(b1-3)Gal(b1-4)[Fuc(a1-3)]GlcNAc
# Outline: as §1
# [16] = target: Neu5Ac(a2-3)Gal(b1-4)[Fuc(a1-3)]GlcNAc(b1-3)GalNAc
# Outline: as §1
# [17] = target: Neu5Ac(a2-3)Gal(b1-4)[Fuc(a1-3)]GlcNAc(b1-6)[Gal(b1-3)]GalNAc
# Outline: as §1
# [18] = target: Neu5Ac(a2-3)Gal(b1-4)[Fuc(a1-3)]GlcNAc(b1-6)[Neu5Ac(a2-3)Gal(b1-3)]GalNAc
# Outline: as §1
# [19] = target: Neu5Ac(a2-3)Gal(b1-4)[Fuc(a1-3)]GlcNAc6S
# Outline: as §1
# [20] = target: Neu5Ac(a2-3)Gal6S(b1-4)GlcNAc
# Outline: as §1
# [21] = target: Neu5Ac(a2-3)Gal6S(b1-4)[Fuc(a1-3)]GlcNAc
# Outline: as §1
# Neu5Ac(a2-3)GalNAc = target: Neu5Ac(a2-3)GalNAc
# Outline: as §1
# [22] = target: Neu5Ac(a2-3)GalNAc(b1-4)GlcNAc
# Outline: as §1
# [23] = target: Neu5Ac(a2-3)[GalNAc(b1-4)]Gal(b1-4)Glc
# Outline: as §1
# [24] = target: Neu5Ac(a2-3)[GalNAc(b1-4)]Gal(b1-4)GlcNAc
# Outline: as §1
# [25] = target: Neu5Ac(a2-3)[GalNAc(b1-4)]Gal(b1-4)GlcNAc(b1-3)GalNAc
# Outline: as §1
# [26] = target: Neu5Ac(a2-3)[Neu5Ac(a2-6)]GalNAc
# Outline: as §1
# Neu5Ac(a2-6)Gal = target: Neu5Ac(a2-6)Gal
# Outline: as §1
# [27] = target: Neu5Ac(a2-6)Gal(b1-3)GlcNAc(b1-3)[Gal(b1-4)GlcNAc(b1-6)]Gal(b1-4)Glc
# Outline: as §1
# Neu5Ac(a2-6)Gal(b1-4)Glc = target: Neu5Ac(a2-6)Gal(b1-4)Glc
# Outline: as §1
# [28] = target: Neu5Ac(a2-6)Gal(b1-4)GlcNAc
# Outline: as §1
# [29] = target: Neu5Ac(a2-6)Gal(b1-4)GlcNAc(b1-2)Man(a1-3)Man(b1-4)GlcNAc(b1-4)GlcNAc
# Outline: as §1
# [30] = target: Neu5Ac(a2-6)Gal(b1-4)GlcNAc(b1-2)Man(a1-3)[Gal(b1-4)GlcNAc(b1-2)Man(a1-6)]Man(b1-4)GlcNAc(b1-4)GlcNAc
# Outline: as §1
# [31] = target: Neu5Ac(a2-6)Gal(b1-4)GlcNAc(b1-2)Man(a1-3)[GlcNAc(b1-2)Man(a1-6)]Man(b1-4)GlcNAc(b1-4)GlcNAc
# Outline: as §1
# [32] = target: Neu5Ac(a2-6)Gal(b1-4)GlcNAc(b1-2)Man(a1-3)[GlcNAc(b1-2)Man(b1-4)GlcNAc(b1-2)Man(a1-6)]Man(b1-4)GlcNAc(b1-4)GlcNAc
# Outline: as §1
# [33] = target: Neu5Ac(a2-6)Gal(b1-4)GlcNAc(b1-2)Man(a1-3)[Man(a1-6)]Man(b1-4)GlcNAc(b1-4)GlcNAc
# Outline: as §1
# [34] = target: Neu5Ac(a2-6)Gal(b1-4)GlcNAc(b1-2)Man(a1-3)[Neu5Ac(a2-6)Gal(b1-4)GlcNAc(b1-2)Man(a1-6)]Man(b1-4)GlcNAc(b1-4)GlcNAc
# Outline: as §1
binder,measurement,setting,value
B1,glycan array binding signal (z-score),[1],-0.443
same,glycan array binding signal (z-score),[2],-0.423
same,glycan array binding signal (z-score),[3],0.126
same,glycan array binding signal (z-score),[4],-0.404
same,glycan array binding signal (z-score),[5],-0.426
same,glycan array binding signal (z-score),[6],-0.514
same,glycan array binding signal (z-score),[7],-0.515
same,glycan array binding signal (z-score),[8],-0.44
same,glycan array binding signal (z-score),[9],-0.444
same,glycan array binding signal (z-score),[10],-0.421
same,glycan array binding signal (z-score),[11],-0.497
same,glycan array binding signal (z-score),[12],1.44
same,glycan array binding signal (z-score),[13],1.42
same,glycan array binding signal (z-score),[14],1.4
same,glycan array binding signal (z-score),[15],1.9
same,glycan array binding signal (z-score),[16],-0.031
same,glycan array binding signal (z-score),[17],-0.12
same,glycan array binding signal (z-score),[18],0.045
same,glycan array binding signal (z-score),[19],1.59
same,glycan array binding signal (z-score),[20],1.5
same,glycan array binding signal (z-score),[21],1.99
same,glycan array binding signal (z-score),Neu5Ac(a2-3)GalNAc,-0.531
same,glycan array binding signal (z-score),[22],-0.496
same,glycan array binding signal (z-score),[23],-0.5
same,glycan array binding signal (z-score),[24],-0.509
same,glycan array binding signal (z-score),[25],-0.431
same,glycan array binding signal (z-score),[26],-0.551
same,glycan array binding signal (z-score),Neu5Ac(a2-6)Gal,-0.481
same,glycan array binding signal (z-score),[27],-0.426
same,glycan array binding signal (z-score),Neu5Ac(a2-6)Gal(b1-4)Glc,-0.48
same,glycan array binding signal (z-score),[28],-0.506
same,glycan array binding signal (z-score),[29],-0.425
same,glycan array binding signal (z-score),[30],-0.423
same,glycan array binding signal (z-score),[31],-0.414
same,glycan array binding signal (z-score),[32],-0.434
same,glycan array binding signal (z-score),[33],-0.442
same,glycan array binding signal (z-score),[34],-0.469

# — the supplement of paper PMC8728848
